# Out of some 310,000 compounds screened, about 2,200 (0.71%) showed an effect of 50% or more. Effects have a minus sign here. Some of the results follow.
# Molecular target: human ether-à-go-go-related gene (hERG) potassium channel (human, UniProt Q12809)
# Assay: primary screen, population patch clamp on CHO cells stably expressing hERG
# Sequence of human ether-à-go-go-related gene (hERG) potassium channel (Q12809 whole entry, looked up): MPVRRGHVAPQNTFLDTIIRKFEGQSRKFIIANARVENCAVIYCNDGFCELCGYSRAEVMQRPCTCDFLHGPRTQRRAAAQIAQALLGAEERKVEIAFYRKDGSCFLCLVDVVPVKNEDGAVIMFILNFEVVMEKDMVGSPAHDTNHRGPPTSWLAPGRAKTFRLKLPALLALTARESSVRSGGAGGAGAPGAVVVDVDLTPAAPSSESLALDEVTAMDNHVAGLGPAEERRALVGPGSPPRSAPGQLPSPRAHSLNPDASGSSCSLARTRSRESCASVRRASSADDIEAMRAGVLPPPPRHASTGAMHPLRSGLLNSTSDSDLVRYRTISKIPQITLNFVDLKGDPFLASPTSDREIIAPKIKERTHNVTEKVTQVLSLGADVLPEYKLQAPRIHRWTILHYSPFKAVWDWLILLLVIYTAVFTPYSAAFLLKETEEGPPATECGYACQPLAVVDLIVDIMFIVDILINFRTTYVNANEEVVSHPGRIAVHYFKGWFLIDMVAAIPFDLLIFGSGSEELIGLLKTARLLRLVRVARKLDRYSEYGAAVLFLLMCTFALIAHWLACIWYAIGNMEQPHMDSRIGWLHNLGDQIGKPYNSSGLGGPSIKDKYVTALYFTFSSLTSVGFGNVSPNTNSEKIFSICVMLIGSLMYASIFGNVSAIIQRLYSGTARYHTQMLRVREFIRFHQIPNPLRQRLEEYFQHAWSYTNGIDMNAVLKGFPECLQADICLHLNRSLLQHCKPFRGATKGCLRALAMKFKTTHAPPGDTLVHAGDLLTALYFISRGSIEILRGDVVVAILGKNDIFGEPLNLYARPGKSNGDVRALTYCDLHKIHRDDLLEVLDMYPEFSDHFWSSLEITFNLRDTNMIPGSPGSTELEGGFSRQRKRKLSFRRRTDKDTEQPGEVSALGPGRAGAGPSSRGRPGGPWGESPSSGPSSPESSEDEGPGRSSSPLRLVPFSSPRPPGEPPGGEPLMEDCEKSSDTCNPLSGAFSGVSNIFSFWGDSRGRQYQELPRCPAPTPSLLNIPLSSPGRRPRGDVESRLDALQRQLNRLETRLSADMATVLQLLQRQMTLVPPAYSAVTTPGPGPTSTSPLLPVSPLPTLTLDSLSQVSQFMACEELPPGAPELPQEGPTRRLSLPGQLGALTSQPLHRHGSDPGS
row,Structure (SMILES),"hERG current change (%, negative = inhibition) at 1uM [%]"
1,O=C(CC1CCCCC1)OCn1nnc2ccccc2c1=O,-3.31
2,Cc1cc(=O)[nH]c(/N=C(\N)Nc2cccc3ccccc23)n1,14
3,CCSC1(SCC)N=C(N)C2(C#N)C(c3ccccc3)NC(C)=CC12C#N (stereo not shown),17
4,O=S(=O)(Nc1nc(CN2CCOCC2)nc2sc3c(c12)CCCC3)c1cc(F)ccc1F,7.88
5,C/C(=N\NC(=O)c1ccccc1Cl)c1c(O)n(C2CCCCC2)c(=O)[nH]c1=O,17
6,CCOC(=O)C1CCN(S(=O)(=O)c2ccc(OC)c(C(=O)N3CCCCC3)c2)CC1,14
7,Cc1cccc(NC(=S)N(CCCN2CCOCC2)C(C)c2cc3ccccc3o2)c1 (stereo not shown),2.31
8,CCOC(=O)c1sc(NC(=O)COC(=O)CNC(=O)C2CCCCC2)c(C(=O)OCC)c1C,14.6
9,COCCCN1C(=O)C2C(C(=O)Nc3cc(C)cc(C)c3)C3C=CC2(O3)C1C(=O)NC1CCCCC1 (stereo not shown),10.9
10,COc1ccc(CCNC(=O)CC2SC(=Nc3cc(C)cc(C)c3)NC2=O)cc1OC (stereo not shown),6.5
11,COC(=O)CCSCc1cn2cc(Cl)ccc2n1,21.1
12,CCOC(=O)C1(Cc2ccc(OC)cc2)CCN(C(=O)CN2CCCCC2=O)CC1,11.5
13,Cc1cc(=O)n2nc(-c3ccccc3)sc2c1C#N,2.21
14,COc1ccc(Cl)cc1NC(=O)CCNC(=O)Cn1ccc2ccccc2c1=O,9.89
15,O=C(CCC(=O)c1ccc(Oc2ccccc2)cc1)Nc1ccc(C(=O)O)cc1,19.6
16,CCc1ccc(/C=N/NC(=O)c2cc(C)on2)s1,5.45
17,COc1ccc(C2=NN(C(=O)CCC(=O)O)C(c3ccc(OC)c(OC)c3)C2)cc1 (stereo not shown),10.2
18,Cc1ccc(N2CCN(S(=O)(=O)c3ccc4c(c3)NC(=O)C(C)C(=O)N4)CC2C)cc1 (stereo not shown),13.5
19,COc1cccc(C(c2nnnn2CCc2ccccc2)N2CCN(c3ccccc3)CC2)c1OC (stereo not shown),4.6
20,O=C(Nc1cccc(Cl)c1)c1cc(F)cc2c1OCOC2,9.24
21,CCOC(=O)c1cn2nc(N3CCCC3)ccc2n1,10.5
22,COc1cccc(Oc2c(C)oc3c(CN4CCCC4)c(O)ccc3c2=O)c1,-3.38

row,Structure (SMILES),"hERG current change (%, negative = inhibition) at 1uM [%]"
1,CN1CCN(C(=S)c2cn(Cc3ccccc3)c3ccccc23)CC1,8.36
2,COc1ccc(Cl)cc1NC(=O)CSc1nc(-c2ccccc2)cc(=O)[nH]1,1.34
3,COc1ccc(C(=O)N[C@H](C(=O)Nc2ccc(S(=O)(=O)N3CCOCC3)cc2)C(C)C)cc1,3.97
4,CC(=O)Oc1ccc(C(=O)O)c(OC(C)=O)c1,12.3
5,CCOc1cc(/C=N\NC(=O)OC)ccc1OC(=O)c1ccco1,11.4
6,COc1cccc(NC(=O)CN(C)C(=O)/C=C/c2cc(OC)ccc2OC)c1,-11.8
7,CCOc1ccc(CNC(=O)c2ccc(Sc3ccc(Cl)cc3)c(NC(C)=O)c2)cc1OC,6.22
8,Cc1cccc(C)c1NC(=O)CN(C)C(=O)c1ccc(-c2cccc(C(F)(F)F)c2)o1,6.2
9,O=C(NC1CCCCC1)N1CCN(C(=O)c2ccco2)CC1,3.28
10,CCOC(=O)c1ccc(Nc2ncccc2[N+](=O)[O-])cc1,13.3
11,CCCCN(CC(=O)NC(C)(C)C)C(=O)C(=O)Nc1ccc2c(c1)OCCO2,4.53
12,CC1CN(C(=O)c2ccc(COc3ccc4ccccc4c3)o2)CC(C)O1 (stereo not shown),7.64
13,CCCCCCCCCCCCS(=O)(=O)CCC(=O)O,7.86
14,Cc1ccc(-c2nnnn2C2C/C(=N\NC(N)=S)C3OCC2O3)cc1 (stereo not shown),4.91
15,Cc1cccc2c1[nH]c1nc(N/N=C\c3ccco3)nnc12,14.8
16,COc1ccc(OCC(=O)N/N=C/c2cccc3cccnc23)cc1,14.2
17,O=c1ccc2cc(S(=O)(=O)N3CCOCC3)ccc2o1,9.59
18,CCOC(=O)C1=C(O)/C(=C\c2ccc(OC)c(OC)c2)N=C1C,12.6
19,CCOC(=O)c1c(NC(C)=O)sc(C(=O)NC2CCCC2)c1C,14.5
20,O=C(O)C1C(c2ccccc2)C(C(=O)Oc2ccc(O)cc2)C1c1ccccc1 (stereo not shown),3.6
21,Cc1nn(-c2ccccc2)c2sc(C(=O)OCn3nnc4ccccc4c3=O)cc12,6.84

# Source: publication PMC4336329 (PLoS ONE, 2015)
